Test results: PubChem BioAssay AID624417 (National Center for Advancing Translational Sciences (NCATS), 2012)
The campaign covered roughly 410,000 compounds. About 6,400 (1.6%) were called active. The inconclusive results got no clear call from the source; some entries with a clear call stand among them for comparison. Calls follow the shape of the dose curve; as a rule, active = well fitted inhibition curve with a large enough effect; inconclusive = small, poorly fitted or top-dose-only effect; inactive = no such curve, though single readings can be large or run the other way. Potencies of inconclusive entries are doubtful fits and often do not repeat.

Each molecule was assayed against Glucagon-like peptide 1 receptor (Homo sapiens) (UniProt P43220) (assay: qHTS of GLP-1 Receptor Inverse Agonists (Inhibition Mode)). Details: HEK293 GLP-1R CRE-luciferase, luminescence, 24 h, GLP-1R form is constitutively active; series mostly up to 38.3 µM.
Method in brief: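 Inverse agonism was detected as reduced cAMP-driven luciferase luminescence after 24 h compound treatment. The cells were HEK293 clones expressing constitutively active human GLP-1R with the reporter. Reporter-only and GPR119 cell lines served as counterscreen controls.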
Also: nearly all actives have a fitted effect of over 55% in size.
Potency is read from the fitted curve at half-maximal effect; tags tell the direction and shape of the fitted curve.

Chain of UniProt P43220 (P43220 whole entry, looked up): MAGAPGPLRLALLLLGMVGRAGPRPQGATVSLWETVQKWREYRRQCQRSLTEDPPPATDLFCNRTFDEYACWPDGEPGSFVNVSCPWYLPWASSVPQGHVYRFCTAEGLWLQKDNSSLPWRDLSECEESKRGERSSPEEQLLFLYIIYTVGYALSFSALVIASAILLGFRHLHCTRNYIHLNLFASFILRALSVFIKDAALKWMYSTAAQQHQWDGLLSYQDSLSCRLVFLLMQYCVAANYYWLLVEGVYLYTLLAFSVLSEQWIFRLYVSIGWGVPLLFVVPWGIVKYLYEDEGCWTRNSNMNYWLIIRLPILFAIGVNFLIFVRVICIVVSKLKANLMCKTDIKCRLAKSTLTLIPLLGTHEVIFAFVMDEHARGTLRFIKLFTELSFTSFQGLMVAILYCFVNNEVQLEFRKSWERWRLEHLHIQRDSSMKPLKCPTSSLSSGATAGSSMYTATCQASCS

Potency, active:
COc1ccc(OC)c(NC(=O)CN(c2ccc(C)cc2)S(=O)(=O)c2c(C)noc2C)c1 10 µM

Potency, inactive:
C[C@@H](C(=O)Nc1ccc2ccccc2c1)[C@@H]1C[C@@]1(C)[C@@H](NC(=O)c1ccccc1)c1ccccc1
CC(C)NC(=O)CCC(=O)N1Cc2ccccc2Oc2ncccc21
O=C(OCC(=O)c1ccc(Cl)s1)c1cncc(Br)c1
Cc1cc(-c2ccccc2)nc(N2CCC(C(=O)NC(C)C)CC2)n1
COc1ccc(-c2cc3ccc(O)c(CN4CCC(C)CC4)c3oc2=O)cc1OC
C/C=C1\COC(C(=O)NCCCN2CCCC2=O)(C(F)(F)F)C=C1C=C(C)C (stereo unspecified)
Cc1nn(CC(=O)NCC2CCCO2)c(C)c1[N+](=O)[O-] (stereo unspecified)
COc1ccc(CN(C)C(=O)C2CC(=O)N(c3ccc4c(c3)OCCO4)C2)c(OC)c1 (stereo unspecified)
COC(=O)c1ccc(C2Nc3ccc(/C(C)=N/NC(=O)C(OC)c4ccccc4)cc3C3C=CCC32)cc1 (stereo unspecified)

Potency, inconclusive:
C(=N\Nc1ccc2nncn2n1)/c1ccccn1 12.6 µM [inhibitor, single point]
C(=C\c1ccccc1)/CN1CCN(C(c2cccc3ccccc23)c2nnnn2C2CCCC2)CC1 (stereo unspecified) 11.2 µM [inhibitor, single point]
Cc1ccc(-c2nnc(SCC(=O)NCC3CCCO3)nc2-c2ccc(C)cc2)cc1 (stereo unspecified) 22.4 µM [inhibitor, single point]
O=C(Nc1ccc(C(F)(F)F)cc1)c1ccccc1Br 31.6 µM [inhibitor, single point]
CCc1ccc(OCC(=O)NC(NC(=S)Nc2ccc(Cl)cc2)C(Cl)(Cl)Cl)cc1 (stereo unspecified) 22.4 µM [inhibitor, single point]
Cc1ccc(Cn2c(C(C)NC(=O)c3ccccc3)nc3ccccc32)cc1 (stereo unspecified) 8.91 µM [inhibitor, partial curve, poor fit]
O=C(NCCCN1CCN(c2ccccc2)CC1)c1ccc2nc(Cc3ccccc3)oc2c1 12.6 µM [inhibitor, single point]
CC(C)c1ccc(OCC(=O)Nc2cccc3c2CCCC3)cc1 5.62 µM [inhibitor, full curve, poor fit]
O=C(N/N=C/c1ccc(F)cc1)c1sccc1OCc1ccc(F)cc1 12.6 µM [inhibitor, single point]
C=CCc1ccc(OCCOCCOc2ccc(C)cc2[N+](=O)[O-])c(OC)c1 28.2 µM [inhibitor, single point]
O=C(N/C(=C/c1ccc(Cl)cc1)C(=O)N1CCCC1)c1ccccc1 10 µM [inhibitor, single point]
CCOC(=O)/C=C(C)\C=C\c1c[nH]c2ccccc12 28.2 µM [inhibitor, single point]
COc1cccc2c(SCC(=O)N/N=C/c3ccccc3)cc(C)nc12 28.2 µM [inhibitor, single point]
C/C1=C\CCC2C(/C=C(\C)CC1)OC(=O)C2CN1CCCCC1 (stereo unspecified) 14.1 µM [inhibitor, partial curve, poor fit]
CCCCOC(=O)c1ccc(NC(=O)/C=C/c2cccs2)cc1 12.6 µM [inhibitor, partial curve, poor fit]
COc1cc(NC(=O)CN2C(=O)NC(C)(CCC(C)C)C2=O)cc(OC)c1 (stereo unspecified) 8.91 µM [inhibitor, partial curve, poor fit]
CC(=O)NC1CCCc2c1cnn2-c1ccc(C(C)(C)C)cc1 (stereo unspecified) 28.2 µM [inhibitor, partial curve, poor fit]
CC1(C)CC(=O)C2=C(C1)NC(SCC(=O)Nc1ccccc1)=C(C#N)C2c1ccco1 (stereo unspecified) 11.2 µM [inhibitor, partial curve, poor fit]
CCCNC(=O)c1n[nH]c2c1CC(C(C)(C)CC)CC2 (stereo unspecified) 28.2 µM [inhibitor, single point]
Cc1ccccc1CN1C(=O)c2ccccc2S(=O)(=O)c2ccc(C(=O)OCC3CCCO3)cc21 (stereo unspecified) 11.2 µM [inhibitor, single point]
Cc1ccc(C(C)C)c(OC(C)C(=O)NCC2(N(C)C)CCCCC2)c1 (stereo unspecified) 11.2 µM [inhibitor, single point]
Cc1cccc(Cn2cccc2CNS(=O)(=O)c2ccc(Br)cc2)c1 28.2 µM [inhibitor, single point]
CNC1(c2nnnn2-c2c(C)cccc2C)CCOC(C)(C)C1 (stereo unspecified) 11.2 µM [inhibitor, partial curve, poor fit]
O=C(NCCc1ccccc1)C(=O)c1c(-c2ccccc2)[nH]c2ccccc12 14.1 µM [inhibitor, partial curve, poor fit]
Cc1cccc(OCCNC(=O)CSc2ccc(C(F)(F)F)cc2[N+](=O)[O-])c1 12.6 µM [inhibitor, single point]
CC12CCC(=O)N1C(C(=O)NCCN1C(=O)S/C(=C\c3ccc(F)cc3)C1=O)CS2 (stereo unspecified) 12.6 µM [inhibitor, single point]
CCCCCCCCc1nc(SCC(C)=O)n[nH]1 12.6 µM [inhibitor, single point]
C/C(=N\OCC(=O)Nc1ccc(F)c(F)c1F)c1cc2ccccc2o1 14.1 µM [inhibitor, single point]
COc1ccc(CC(=O)Nc2ccc(N(C)C)c3ccccc23)cc1 14.1 µM [inhibitor, single point]
COc1ccc(/C=N/NC(=O)c2nc(Cl)c(Cl)c(N)c2Cl)cc1COc1ccc(F)cc1F 20 µM [inhibitor, single point]
Clc1ccc(CO/N=C/c2c(-c3ccccc3)nc3n2CCS3)c(Cl)c1 28.2 µM [inhibitor, single point]
